The campaign covered roughly 150,000 compounds. About 540 (0.36%) showed an effect of 50% or more. The list shows a part of the results.

In this experiment the test system is Plasmodium falciparum. The experiment in a line: Primary screen in NF54 nanoGlo assay, in single point, at 2uM, 72h; a lower Z score goes with more inhibition. It is filed as functional, Erythrocyte. The conditions noted are these: timepoint 72 hour.
What is called % Inhibition is the drop in the measured response relative to a control, in per cent. For the molecule `CCS(=O)(=O)c1cccc(NCc2cn3cccnc3n2)c1`, the “% Inhibition” value is reported as -12% and the Z score amounted to 1.08.
For `O=C(NCc1cccnc1-n1ccnc1)c1cnc2ccccn12`, in that order: -10% and 1.96.
For `Cn1nncc1CN1CCCC1C1CCCN1Cc1ccccc1` (stereo unspecified), the “% Inhibition” value is recorded as 1% and the Z score is on record as -0.15.
Regarding `CCOCc1nc(-c2ncc(C)cn2)no1`, the “% Inhibition” value was -8% and the Z score came out at 1.
Regarding `Cc1ccc(S(=O)(=O)N2CC3(C2)CC(C)(C)C3)cc1`, the “% Inhibition” value is 1% and the Z score is listed as -0.1.
For `Cc1ccc([C@H]2c3ccccc3CCN2C(=O)c2ccc(F)cc2)cc1` the same measures were -3% and 0.46.
Regarding `CC(C)C(=O)Nc1c(C(=O)N2CCCCCC2)oc2ccccc12`, the “% Inhibition” value is listed as -5% and the Z score stood at 0.52.
`NC(=O)C1CCN(C(=O)c2cc3c(ccc4ccccc43)[nH]2)CC1`: the “% Inhibition” value is listed as -18% and the Z score stood at 2.27.
For `c1cncc(CN(Cc2ccsc2)Cc2cccn2-c2nccs2)c1`, the “% Inhibition” value is on record as -10% and the Z score is on record as 1.6.
For the molecule `CC(=O)Nc1cccc(NCc2noc(-c3ccccc3)n2)c1C`, the “% Inhibition” value is 1% and the Z score is on record as -0.2.
With `Cc1ccc2c(c1)Oc1ccc(S(=O)(=O)N3CCC(C)CC3)cc1C(=O)N2`, the “% Inhibition” value is -14% and the Z score was found to be 2.03.
For `COc1ccc(-c2noc(CCn3c(=O)[nH]c4cc5c(cc4c3=O)OCO5)n2)c(OC)c1` the same measures were 29% and -0.54.
For `CN1C(=O)[C@]2(CCN(C(=O)CCc3ccccc3)C2)c2ccccc21` the same measures were -4% and 0.57.
For `CCn1cc(-c2nncn2-c2cc(C)nn2C)c(C)n1` the same measures were -17% and 2.05.
As for `Cc1nc(CC(=O)Nc2nc(-c3ccc4c(c3)OCO4)cs2)cs1`, the “% Inhibition” value is listed as -7% and the Z score worked out at 0.91.
In the case of `Cn1ccc(C(=O)Nc2cc(Cc3ccccc3)ccc2O)cc1=O`, the “% Inhibition” value is reported as -7% and the Z score is 1.46.
For `CS(=O)(=O)CC(=O)N1CCC(c2ccccc2)=N1`, the “% Inhibition” value was determined as 13% and the Z score is recorded as -1.72.
Regarding `COc1ccc(/C=C/CN2CC[C@H](NC(=O)c3ccncc3)[C@@H](O)C2)cc1`, the “% Inhibition” value is listed as -23% and the Z score was determined as 2.1.
For `C[C@@H](C(=O)Nc1ncccn1)N1CCC(c2nc3ccccc3s2)CC1` the same measures were 1% and -0.19.
For `CCOC(=O)N1CCN(C(=O)c2c(C)n[nH]c2C2CC2)CC1`, in that order: -13% and 2.3.
With `COc1ccc(S(=O)(=O)N2CCN([C@H]3CC(=O)N(Cc4ccc(Cl)cc4)C3=O)CC2)cc1`, the “% Inhibition” value is listed as -3% and the Z score came to 0.5.
For `Cn1cc(CN2CC[C@H](CNC(=O)NCc3ccccc3)C2)cn1` the same measures were -9% and 1.91.
Consider `Cc1c[nH]c(CN2CC(c3ccccc3)(c3ccccc3)CCC2=O)n1`, for which the “% Inhibition” value is listed as -11% and the Z score turned out to be 1.67.
For `N#Cc1ccc(C(=O)N2CCC(COc3ccc(C(=O)NC4CC4)cc3)CC2)cc1` the same measures were -10% and 1.97.
Turning to `Cc1cc(S(=O)(=O)Nc2noc(C)c2Cl)sc1C`, the “% Inhibition” value is given as 2% and the Z score was -0.45.
Regarding `CC(=O)Nc1ccc(-c2cc(-c3ccccc3)nc(-c3ccccc3)n2)cc1`, the “% Inhibition” value is given as -14% and the Z score turned out to be 2.76.
On to `CNc1cc(C(=O)N2CCCC[C@@H]2CCc2cccs2)ccn1`, for which the “% Inhibition” value is -10% and the Z score is 1.28.
For `CC(=O)c1c(-c2ccc(C(=O)N3C[C@]4(C)C[C@H]3CC(C)(C)C4)cc2)cnn1C` the same measures were -17% and 1.5.
Consider `O=C1CC[C@@H]2CN(C(=O)c3cnn4c3CCC4)c3cccc1c32`, for which the “% Inhibition” value is on record as -10% and the Z score was found to be 1.23.
On to `CCOc1ccc(-c2cc(C(=O)NC[C@@H](c3ccccc3)N3CCCC3)no2)cc1`, for which the “% Inhibition” value amounted to 2% and the Z score is reported as -0.38.
Consider `Cc1nn(C)c(C)c1S(=O)(=O)N1CCC(c2cncn2C)CC1`, for which the “% Inhibition” value is listed as -9% and the Z score is 1.7.
For `O=C(c1ccc(F)cc1)N1CCOc2ccc(N3CCOCC3)cc2C1`, in that order: -10% and 2.
For `c1ccc2oc(-c3ccc(Nc4nc(N5CCCC5)nc(N5CCOCC5)n4)cc3)nc2c1` the same measures were -2% and 0.22.
Consider `Cc1cc(C)n([C@@H](C)c2nc(-c3c(C)ncc4c3CCNC4)no2)n1`, for which the “% Inhibition” value is on record as -4% and the Z score was 0.82.
On to `O=C(Nc1ccc(F)cc1)[C@@H]1C[C@H](C(=O)N2CCCCC2)CN(Cc2c[nH]c3ccccc23)C1`, for which the “% Inhibition” value was -20% and the Z score was 2.29.
Regarding `O=C(Nc1cc2ccccc2cc1NC(=O)c1ccco1)c1ccco1`, the “% Inhibition” value is listed as 4% and the Z score is recorded as -0.57.
As to `CC(C)[C@@]1(c2nc(-c3cccc(C(F)(F)F)n3)no2)CNC(=O)C1`, the “% Inhibition” value is 9% and the Z score is -1.31.
For `CN1CCN(C[C@@H]2OC[C@H](NC(=O)c3ccc(C(F)(F)F)cc3)[C@H]2O)CC1`, in that order: 3% and -0.46.
As for `Cc1c(-c2nc(-c3ccccc3)c(-c3ccccc3)[nH]2)n(C)n(-c2ccccc2)c1=O`, the “% Inhibition” value is recorded as -5% and the Z score turned out to be 0.86.
For `Cn1ncnc1CCNC(=O)CNc1ccccc1` the same measures were -6% and 0.57.
For `O=S(=O)(c1ccc2c(c1)CCC2)N1CCCO1`, in that order: -10% and 0.91.
For `COc1cc(NC(=O)c2ccc(C)nc2)ncn1`, in that order: -4% and 0.68.
For the molecule `Cc1ccc(NC(=O)C2CCN(S(=O)(=O)c3ccc4c(c3)CCCN4C(=O)C3CCC3)CC2)c(Cl)c1`, the “% Inhibition” value is -9% and the Z score was 1.7.
For `Cc1nn(-c2ccccc2Cl)c(O)c1C(c1ccsc1)c1c(C)nn(-c2ccccc2Cl)c1O` the same measures were 6% and -0.74.
For `CCC(CO)(CO)NC(=O)c1cccn1C(C)C` the same measures were -9% and 1.38.
For `CCN(CC(F)(F)F)C(=O)c1cc(S(=O)(=O)N(C)C)oc1C`, in that order: -16% and 1.6.
Regarding `COc1ccc(C2(C(=O)N3CC[C@H](C(=O)O)C3)CCCCC2)cc1OC`, the “% Inhibition” value is recorded as -1% and the Z score was 0.14.
For `O=C1c2ccccc2C(=O)C1c1cc2ccccc2cn1` the same measures were -13% and 2.18.
For `O=C(c1ccc(F)cc1)c1ccc(OCc2nnc(-c3ccco3)o2)cc1` the same measures were -10% and 1.27.
With `Brc1cccc2c1CN(Cc1c[nH]cn1)CC2`, the “% Inhibition” value was -10% and the Z score is 1.61.
For `CCCCn1nc(CC2CCN(C)CC2)nc1CN1C[C@@H]2CC[C@H]1C2` the same measures were -13% and 1.18.
As for `C[C@@H](Cn1cnc2ccccc2c1=O)NCc1cccc(CO)c1`, the “% Inhibition” value was -13% and the Z score came to 1.93.
For `O=C(Nc1ccccc1F)N1CCCCC[C@@H]1CN1CCOCC1`, in that order: 1% and -0.15.

The record behind these values is ChEMBL document CHEMBL4888484, “Replenishing the malaria drug discovery pipeline: Screening and hit evaluation of the MMV Hit Generation Library 1 (HGL1) against asexual blood stage Plasmodium falciparum ,using a nano luciferase reporter read-out” (2022).
